{
  "source": "the supplement of paper PMC8728848",
  "binders": {"B1": {"name": "PX9961H-bth-557-24-557 (Bacteroides thetaiotaomicron) (protein)", "chain": "EETRTEVEKKNYMNNAEEAKDVLLGVYRTNTLDAMYGYYLSILFNLGTDISQVEGSGNENFRIIPTNSFPTTQSEVQQTWAALYTGIYRANDFLERISNKIGSYTTTDKKLATLYIAEARALRGMFYFELVRRFGNVVLMTSTQMSNQNPATYVQSAPEKVYEYIEDDLLYACDILPYATDDQYRESNDYRFSKGAALGLLTKVYATWAGYPVKDESKWEAAAKTARILVESGKHGLLKDYEQLWKNTCNGTWDPTESLIEISFYSPTVSGNSDPVGRIGKWNGVKTTAIAGVRGSCAANVKVVHTFVLDWREDVSDIRRDLSIANYQYTDTKKSLWVAGASDTDESAAEKDADPTKAQKNKQNYTPAKWDIQKYVTTNSFINNDKSNVNWYFLRYADVLLLYAEALNEWKHGPDAEAYNAINAVRRRGYGNPSNTSACDLPQGLDETSFREAVRKERSYELSFEGHRRQDLIRWGIYYKTVQATAKELGYWWEGTGSPNYSVATYTEEGKHELFPIPQRDMDLCIQFNQNPKW"}},
  "assay_in_all_cases": "glycan array binding signal (z-score within array); higher = stronger binding",
  "conditions_in_all_cases": "glycan notation: IUPAC condensed, linker removed",
  "key": {"Fuc(a1-2)Gal": {"biological_target": "Fuc(a1-2)Gal", "procedure,_shortened": "(§1)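 Negative Z-scores can be read as non-binding. The Z-score is calculated within each array and then averaged across arrays of one protein sequence at different concentrations or buffers and across linkers. Arrays, 3228 in all, were curated from the Consortium for Functional Glycomics database and kept only where the protein sequence was available.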"}, "Fuc(a1-2)Gal(b1-3)GalNAc": {"biological_target": "Fuc(a1-2)Gal(b1-3)GalNAc", "procedure,_shortened": "as §1"}, "[1]": {"biological_target": "Fuc(a1-2)Gal(b1-3)GalNAc(a1-3)[Fuc(a1-2)]Gal(b1-4)Glc", "procedure,_shortened": "as §1"}, "[2]": {"biological_target": "Fuc(a1-2)Gal(b1-3)GalNAc(a1-3)[Fuc(a1-2)]Gal(b1-4)GlcNAc", "procedure,_shortened": "as §1"}, "[3]": {"biological_target": "Fuc(a1-2)Gal(b1-3)GalNAc(b1-3)Gal", "procedure,_shortened": "as §1"}, "[4]": {"biological_target": "Fuc(a1-2)Gal(b1-3)GalNAc(b1-3)Gal(a1-4)Gal(b1-4)Glc", "procedure,_shortened": "as §1"}, "[5]": {"biological_target": "Fuc(a1-2)Gal(b1-3)GalNAc(b1-4)[Neu5Ac(a2-3)]Gal(b1-4)Glc", "procedure,_shortened": "as §1"}, "Fuc(a1-2)Gal(b1-3)GlcNAc": {"biological_target": "Fuc(a1-2)Gal(b1-3)GlcNAc", "procedure,_shortened": "as §1"}, "[6]": {"biological_target": "Fuc(a1-2)Gal(b1-3)GlcNAc(b1-2)Man(a1-3)[Fuc(a1-2)Gal(b1-3)GlcNAc(b1-2)Man(a1-6)]Man(b1-4)GlcNAc(b1-4)GlcNAc", "procedure,_shortened": "as §1"}, "[7]": {"biological_target": "Fuc(a1-2)Gal(b1-3)GlcNAc(b1-2)Man(a1-3)[Fuc(a1-2)Gal(b1-3)GlcNAc(b1-2)Man(a1-6)]Man(b1-4)GlcNAc(b1-4)[Fuc(a1-6)]GlcNAc", "procedure,_shortened": "as §1"}, "[8]": {"biological_target": "Fuc(a1-2)Gal(b1-3)GlcNAc(b1-3)Gal(b1-4)Glc", "procedure,_shortened": "as §1"}, "[9]": {"biological_target": "Fuc(a1-2)Gal(b1-3)GlcNAc(b1-3)GalNAc", "procedure,_shortened": "as §1"}, "[10]": {"biological_target": "Fuc(a1-2)Gal(b1-3)GlcNAc(b1-3)[Fuc(a1-2)Gal(b1-3)GlcNAc(b1-6)]GalNAc", "procedure,_shortened": "as §1"}, "[11]": {"biological_target": "Fuc(a1-2)Gal(b1-3)GlcNAc(b1-3)[Gal(b1-4)GlcNAc(b1-6)]Gal(b1-4)Glc", "procedure,_shortened": "as §1"}, "[12]": {"biological_target": "Fuc(a1-2)Gal(b1-3)GlcNAc(b1-3)[Neu5Ac(a2-6)Gal(b1-4)GlcNAc(b1-6)]Gal(b1-4)Glc", "procedure,_shortened": "as §1"}, "[13]": {"biological_target": "Fuc(a1-2)Gal(b1-3)GlcNAc6S", "procedure,_shortened": "as §1"}, "[14]": {"biological_target": "Fuc(a1-2)Gal(b1-3)[Fuc(a1-4)]GlcNAc", "procedure,_shortened": "as §1"}, "[15]": {"biological_target": "Fuc(a1-2)Gal(b1-3)[Fuc(a1-4)]GlcNAc(b1-2)Man(a1-3)[Fuc(a1-2)Gal(b1-3)[Fuc(a1-4)]GlcNAc(b1-2)Man(a1-3)]Man(b1-4)GlcNAc(b1-4)GlcNAc", "procedure,_shortened": "as §1"}, "[16]": {"biological_target": "Fuc(a1-2)Gal(b1-3)[Fuc(a1-4)]GlcNAc(b1-2)Man(a1-3)[Fuc(a1-2)Gal(b1-3)[Fuc(a1-4)]GlcNAc(b1-2)Man(a1-6)]Man(b1-4)GlcNAc(b1-4)[Fuc(a1-6)]GlcNAc(b1-4)[Fuc(a1-6)]GlcNAc", "procedure,_shortened": "as §1"}, "[17]": {"biological_target": "Fuc(a1-2)Gal(b1-3)[Fuc(a1-4)]GlcNAc(b1-3)[Fuc(a1-3)[Gal(b1-4)]GlcNAc(b1-6)]Gal(b1-4)Glc", "procedure,_shortened": "as §1"}, "[18]": {"biological_target": "Fuc(a1-2)Gal(b1-3)[Fuc(a1-4)]GlcNAc(b1-3)[Gal(b1-4)GlcNAc(b1-6)]Gal(b1-4)Glc", "procedure,_shortened": "as §1"}, "Fuc(a1-2)Gal(b1-4)Glc": {"biological_target": "Fuc(a1-2)Gal(b1-4)Glc", "procedure,_shortened": "as §1"}, "Fuc(a1-2)Gal(b1-4)Glc6S": {"biological_target": "Fuc(a1-2)Gal(b1-4)Glc6S", "procedure,_shortened": "as §1"}, "Fuc(a1-2)Gal(b1-4)GlcNAc": {"biological_target": "Fuc(a1-2)Gal(b1-4)GlcNAc", "procedure,_shortened": "as §1"}, "[19]": {"biological_target": "Fuc(a1-2)Gal(b1-4)GlcNAc(b1-2)Man", "procedure,_shortened": "as §1"}, "[20]": {"biological_target": "Fuc(a1-2)Gal(b1-4)GlcNAc(b1-2)Man(a1-3)[Fuc(a1-2)Gal(b1-4)GlcNAc(b1-2)Man(a1-6)]Man(b1-4)GlcNAc(b1-4)GlcNAc", "procedure,_shortened": "as §1"}, "[21]": {"biological_target": "Fuc(a1-2)Gal(b1-4)GlcNAc(b1-2)Man(a1-3)[Fuc(a1-2)Gal(b1-4)GlcNAc(b1-2)Man(a1-6)]Man(b1-4)GlcNAc(b1-4)[Fuc(a1-6)]GlcNAc", "procedure,_shortened": "as §1"}, "[22]": {"biological_target": "Fuc(a1-2)Gal(b1-4)GlcNAc(b1-2)[Fuc(a1-2)Gal(b1-4)GlcNAc(b1-4)]Man(a1-3)[Fuc(a1-2)Gal(b1-4)GlcNAc(b1-2)Man(a1-6)]Man(b1-4)GlcNAc(b1-4)GlcNAc", "procedure,_shortened": "as §1"}, "[23]": {"biological_target": "Fuc(a1-2)Gal(b1-4)GlcNAc(b1-3)Gal(b1-4)GlcNAc", "procedure,_shortened": "as §1"}, "[24]": {"biological_target": "Fuc(a1-2)Gal(b1-4)GlcNAc(b1-3)Gal(b1-4)GlcNAc(b1-2)Man(a1-3)[Fuc(a1-2)Gal(b1-4)GlcNAc(b1-3)Gal(b1-4)GlcNAc(b1-2)Man(a1-6)]Man(b1-4)GlcNAc(b1-4)GlcNAc", "procedure,_shortened": "as §1"}},
  "note": "This is one part of the list.",
  "data": [
    {"binder": "B1", "values": [
      {"measurement": "glycan array binding signal (z-score)", "setting": "Fuc(a1-2)Gal", "result": -0.153},
      {"measurement": "glycan array binding signal (z-score)", "setting": "Fuc(a1-2)Gal(b1-3)GalNAc", "result": -0.325},
      {"measurement": "glycan array binding signal (z-score)", "setting": "[1]", "result": -0.462},
      {"measurement": "glycan array binding signal (z-score)", "setting": "[2]", "result": -0.38},
      {"measurement": "glycan array binding signal (z-score)", "setting": "[3]", "result": -0.064},
      {"measurement": "glycan array binding signal (z-score)", "setting": "[4]", "result": -0.263},
      {"measurement": "glycan array binding signal (z-score)", "setting": "[5]", "result": -0.543},
      {"measurement": "glycan array binding signal (z-score)", "setting": "Fuc(a1-2)Gal(b1-3)GlcNAc", "result": -0.431},
      {"measurement": "glycan array binding signal (z-score)", "setting": "[6]", "result": 3.58},
      {"measurement": "glycan array binding signal (z-score)", "setting": "[7]", "result": -0.438},
      {"measurement": "glycan array binding signal (z-score)", "setting": "[8]", "result": -0.338},
      {"measurement": "glycan array binding signal (z-score)", "setting": "[9]", "result": 0.055},
      {"measurement": "glycan array binding signal (z-score)", "setting": "[10]", "result": -0.177},
      {"measurement": "glycan array binding signal (z-score)", "setting": "[11]", "result": 1.19},
      {"measurement": "glycan array binding signal (z-score)", "setting": "[12]", "result": -0.391},
      {"measurement": "glycan array binding signal (z-score)", "setting": "[13]", "result": -0.308},
      {"measurement": "glycan array binding signal (z-score)", "setting": "[14]", "result": -0.384},
      {"measurement": "glycan array binding signal (z-score)", "setting": "[15]", "result": -0.045},
      {"measurement": "glycan array binding signal (z-score)", "setting": "[16]", "result": 0.048},
      {"measurement": "glycan array binding signal (z-score)", "setting": "[17]", "result": -0.382},
      {"measurement": "glycan array binding signal (z-score)", "setting": "[18]", "result": -0.405},
      {"measurement": "glycan array binding signal (z-score)", "setting": "Fuc(a1-2)Gal(b1-4)Glc", "result": -0.466},
      {"measurement": "glycan array binding signal (z-score)", "setting": "Fuc(a1-2)Gal(b1-4)Glc6S", "result": -0.342},
      {"measurement": "glycan array binding signal (z-score)", "setting": "Fuc(a1-2)Gal(b1-4)GlcNAc", "result": -0.309},
      {"measurement": "glycan array binding signal (z-score)", "setting": "[19]", "result": -0.188},
      {"measurement": "glycan array binding signal (z-score)", "setting": "[20]", "result": 1.25},
      {"measurement": "glycan array binding signal (z-score)", "setting": "[21]", "result": 0.16},
      {"measurement": "glycan array binding signal (z-score)", "setting": "[22]", "result": 3.23},
      {"measurement": "glycan array binding signal (z-score)", "setting": "[23]", "result": -0.446},
      {"measurement": "glycan array binding signal (z-score)", "setting": "[24]", "result": -0.206}
    ]}
  ]
}
